# Several values for one entry are separate records, joined by “and”; a condition that tells them apart may be missing. Equal values may be shown once. Hit rate of the full screen: of about 340,000 compounds, about 12,000 (3.5%) were called active. The inconclusive results got no clear call from the source; some entries with a clear call stand among them for comparison. Calls follow the shape of the dose curve; as a rule, active = well fitted inhibition curve with a large enough effect; inconclusive = small, poorly fitted or top-dose-only effect, or another doubt; inactive = no such curve, though single readings can be large or run the other way. Potencies of inconclusive entries are doubtful fits and often do not repeat.
# Test: qHTS Assay for Inhibitors of Hepatitis C Virus (HCV)
# Conditions: Huh7.5.1 HCVcc-Cre (HCVcc is cell-culture hepatitis C virus) infection, luciferase reporter, 44 h; activity change, negative = inhibition: at 41.8 µM (top of the series) unless noted
# Procedure, shortened: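 Infectious HCVcc-Cre (~0.5 moi) was added to cells just after compound, with cells seeded 4 h earlier at 1,000 per well. Luciferase activity after 44 h culture reported infection; substrate was incubated 15 min at room temperature before reading.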
# % is scaled to controls: 0 for no effect and ±100 for the full control effect; potency is read from the fitted curve at half-maximal effect; tags tell the direction and shape of the fitted curve.
SMILES,Potency,"activity change, negative = inhibition"
Cc1ccc2sc(N(CCCN(C)C)C(=O)c3ccc(Br)s3)nc2c1C,active: 7.08 µM,
CCN(CC)C(=O)Cn1cc([N+](=O)[O-])cc1[N+](=O)[O-],inactive,
Nc1nc(NCC2CCCO2)nc(Nc2cccc(Cl)c2)c1[N+](=O)[O-] (stereo unspecified),"inconclusive: 5.62 µM [inhibitor, single point]",
COc1ccc(C(CNC(=O)c2oc3cc(C)c(C)cc3c2C)N2CCCCC2)cc1 (stereo unspecified),inactive,
Cc1ccc(C(=O)N/N=C\c2ccc[nH]2)cc1[N+](=O)[O-],active: 4.47 µM,
CCOc1cc(/C=N\NC(=O)Cn2nc([N+](=O)[O-])cc2C)ccc1OCc1cccc2ccccc12,"inconclusive: 10 µM [inhibitor, partial curve]",
Cc1ccc(Nc2nc(N)nc(CSc3nc4ccccc4s3)n2)cc1,"inconclusive: 31.6 µM [inhibitor, single point]",
CN(CC(=O)Nc1ccccc1Cl)C(=O)c1ccc(N2CCCCCC2)c([N+](=O)[O-])c1,"inconclusive: 15.8 µM [inhibitor, single point]",
CCCn1c(SCC(=O)Nc2sc(C)c(C)c2C(=O)OCC)nc2c1c(=O)n(C)c(=O)n2C,"inconclusive: 10 µM [inhibitor, partial curve]",
CS(=O)(=O)N1CCC2CC1c1cc(-c3ccccc3)ccc12 (stereo unspecified),"inconclusive: 5.62 µM [inhibitor, single point]",
Cc1nc(CNS(=O)(=O)c2ccc(Oc3ccccc3)cc2)cs1,"inconclusive: 8.91 µM [inhibitor, partial curve]",
Cc1ccc(S(=O)(=O)N2CCC(=O)N(C(COC(=O)Nc3ccccc3)Cc3ccccc3)CC2)cc1 (stereo unspecified),"inconclusive: 10 µM [inhibitor, partial curve]",
COc1ccc(OC)c(C(=O)c2coc3ccc(OCC(=O)O)cc23)c1,inactive,
COc1ccc(Cn2c(=O)c3[nH]cnc3n(-c3ccc(C)cc3)c2=O)cc1,"inconclusive: 31.6 µM [inhibitor, single point]",
[O-]/[N+](=C/c1ccccc1)c1ccccc1,inactive,
Fc1ccccc1CSc1ncnc2c1oc1ccccc12,"inconclusive: 31.6 µM [inhibitor, single point]",
O=C1CCC(C(=O)N2CCCO2)CN1Cc1cccc(C(F)(F)F)c1 (stereo unspecified),inactive,
C#CCNC(=O)C1=C[C@@H](c2ccc(C(F)(F)F)cc2)C[C@@H](OCCCCO)O1,,inactive: -28.8% [at 8.37 µM]
CC(=O)Nc1ccc(NC(=O)/C=C/c2ccc3c(c2)OCO3)cc1,"inconclusive: 11.2 µM [inhibitor, partial curve]",
Cc1cc(C(=O)CSc2nn3c(=O)c(C(C)(C)C)nnc3s2)c(C)n1C1CC1,"inconclusive: 12.6 µM [inhibitor, single point]",
CC(C)c1oc(=O)cc2c1[C@@H](O)[C@H]1OC(=O)[C@@]3(C)CC[C@@H](O)[C@@]2(C)C13 (stereo partly specified),"inconclusive: 5.62 µM [inhibitor, full curve]",
Cc1ccccc1N1CCN(S(=O)(=O)c2ccc3oc(=O)ccc3c2)CC1,"inconclusive: 10 µM [inhibitor, single point]",

SMILES,Potency,"activity change, negative = inhibition"
CC1(C)C(=O)C=CC(=O)C(C)(C)C(=O)C=CC(=O)C(C)(C)C2=CC=C(O2)C(C)(C)C(=O)C=CC1=O,"inconclusive: 31.6 µM [inhibitor, single point]",
CNCCC(=O)N1c2ccccc2CCc2ccc(NC(=O)OC)cc21,inactive,
COc1ccc(NC(=O)CSc2nc3ccccc3nc2N2CCCCC2)cc1,inactive,
CCOc1ccccc1N1CCN(C2=C(NS(=O)(=O)c3cccs3)C(=O)c3ccccc3C2=O)CC1,"inconclusive: 31.6 µM [inhibitor, single point]",
COc1cc(O)cc(/C=C/c2ccccc2)c1,"inconclusive: 31.6 µM [inhibitor, single point]",
CCc1cc(=O)oc2c3c(cc(OCC(=O)NCCCOC)c12)OC(C)(C)CC3,"inconclusive: 8.91 µM [inhibitor, partial curve, poor fit]",
Cc1cc(C)c(-c2c(O)c3cccc4c3n(c2=O)CCC4)c(C)c1,"inconclusive: 1 µM [inhibitor, full curve]",
COc1cc(C(=O)NNC(=O)CCOc2cccc(Br)c2)cc(OC)c1OC,"inconclusive: 22.4 µM [inhibitor, single point]",
Cc1ccc(Cn2ncc3c(N4CCN(CC#N)CC4)ncnc32)cc1,"inconclusive: 14.1 µM [inhibitor, single point]",
O=C(NNC(=O)c1cccs1)c1ccc(Cl)cc1,inactive,
CCC(C)(C)n1nnnc1C(c1ccc2ncccc2c1)N1CCN(c2nc3ccccc3s2)CC1 (stereo unspecified),"inconclusive: 10 µM [inhibitor, single point] and inconclusive: 11.2 µM [inhibitor, partial curve]",
O=[N+]([O-])c1cccc(-c2ncc3ccccn23)c1,inactive,
Cc1ccccc1-n1c(SCC(=O)NC(N)=O)nc2sc(-c3ccccc3)cc2c1=O,"inconclusive: 3.98 µM [inhibitor, full curve, poor fit]",
COc1ccc(COCC(O)CN2CCN(S(=O)(=O)c3ccc(C(C)C)cc3)CC2)cc1 (stereo unspecified),"inconclusive: 25.1 µM [inhibitor, single point]",
Cc1ccc(-c2ccc(/C=C3\SC(N4CCOCC4)=NC3=O)o2)cc1,active: 12.6 µM,
Cc1sc2ncnc(N3CCC(C(=O)N(C)CC(=O)Nc4ccccc4Br)CC3)c2c1C,"inconclusive: 31.6 µM [inhibitor, single point]",
Fc1ccc(-n2cc(-c3ccccc3)c3c(=S)nc[nH]c32)cc1,"inconclusive: 31.6 µM [inhibitor, single point]",
O=C(NCCC1CCCCN1S(=O)(=O)c1ccc(F)cc1)C(=O)NCCN1CCOCC1 (stereo unspecified),inactive,
CNC(=S)N/N=C/c1cc(C)n(-c2ccc(Cl)c(Cl)c2)c1C,"inconclusive: 12.6 µM [inhibitor, partial curve]",
Cc1ccc(C)c(N2CCN(C(=O)c3ccc(Cn4c(=O)[nH]c5ccccc5c4=O)cc3)CC2)c1,"inconclusive: 22.4 µM [inhibitor, single point]",
COc1ccc(NS(=O)(=O)c2ccc(C(=O)N(C)Cc3ccc(C)o3)cc2)cc1,"inconclusive: 22.4 µM [inhibitor, single point]",
CCCCCC(=O)Nc1cc(N(C)C)nc2ccccc12,"inconclusive: 10 µM [inhibitor, partial curve]",

SMILES,Potency,"activity change, negative = inhibition"
CCC[C@@H](CN1CCC[C@H]1CN1C(N)=NC[C@@H]1Cc1ccccc1)N1C[C@@H](Cc2ccccc2)N(CCCC2CCCC2)C1=N,"inconclusive: 35.5 µM [inhibitor, single point]",
Cc1ccc(/C=C/C(=O)NCc2ccc3c(c2)OCO3)o1,inactive,
Cc1cccn2c(=O)c3cc(C(=O)NC4CCCCC4)c(=N)n(Cc4ccc(F)cc4)c3nc12,"inconclusive: 2.24 µM [inhibitor, single point]",
CC(=O)c1cccc(NC(=O)C(OC(=O)c2ccccc2NS(=O)(=O)c2cccs2)c2ccccc2)c1 (stereo unspecified),inactive,
CC(C)Oc1ccc(S(=O)(=O)N2CCCCC2)cc1NC(=O)C1CSC2(C)CCC(=O)N12 (stereo unspecified),inactive,
CNC(=O)N(O)C1N(/N=C/c2ccc(N(C)C)cc2)C(=S)SC1(C)C (stereo unspecified),inactive,
C=CCn1c(SCC(=O)Nc2nc3ccccc3s2)nnc1-c1ccccc1O,"inconclusive: 31.6 µM [inhibitor, single point]",
CCOC(=O)C1=CC[C@@H](c2cccc(C)c2)N(S(=O)(=O)c2ccc(C)cc2)[C@H]1C(=O)OCC,"inconclusive: 11.2 µM [inhibitor, single point]",
O=C1NC(c2ccccc2)=C(c2ccc3ccccc3n2)C(c2ccncc2)N1 (stereo unspecified),inactive,
COC(=O)c1c(NC(=O)COC(=O)Cn2cnc3ccccc32)sc2c1CCCC2,"inconclusive: 10 µM [inhibitor, partial curve]",
CC(=O)c1sc(NC(=O)Cc2c(F)cccc2Cl)nc1C,"inconclusive: 3.55 µM [inhibitor, full curve, poor fit]",
N=c1n(Cc2ccccc2)c2ccccc2n1Cc1ccccc1,"inconclusive: 31.6 µM [inhibitor, single point]",
CCCSc1nc2c(cnn2-c2ccccc2)c(=O)[nH]1,inactive,
CC1CCN(CCNC(=S)Nc2ccc(Cl)cc2)CC1,"inconclusive: 31.6 µM [inhibitor, single point]",
CC(=O)c1c(C)n(-c2ccccc2)c2ccc(OCC(O)CN3CCOCC3)cc12 (stereo unspecified),"inconclusive: 31.6 µM [inhibitor, single point]",
COc1ccc2sc(-c3ccc(N(C)C)cc3)c(C#Cc3cncn3C)c2c1,active: 2.51 µM,
COc1cccc(-c2nc(CS(=O)(=O)CC(=O)Nc3ccccc3Cl)c(C)o2)c1,active: 12.6 µM,
COc1ccc(NC(=O)CN2C(=O)NC(c3ccccc3)(c3ccccc3)C2=O)cc1,"inconclusive: 3.55 µM [inhibitor, single point]",
CCCOc1ccc(CN(CCO)CCO)cc1C(=O)OC,"inconclusive: 8.91 µM [inhibitor, single point]",
O=C(Nc1cc(S(=O)(=O)N2CCOCC2)ccc1O)c1ccc(NS(=O)(=O)c2ccc(Cl)s2)cc1,"inconclusive: 1.26 µM [inhibitor, partial curve]",
O=C(NCc1cccnc1)c1ccc([N+](=O)[O-])o1,"inconclusive: 11.2 µM [inhibitor, single point]",
COc1ccc(C2=NN(C(=O)c3ccco3)C(c3ccco3)C2)cc1OC (stereo unspecified),inactive,

# — PubChem BioAssay AID651820 (National Center for Advancing Translational Sciences (NCATS), 2012)
